This is a selection; strong and weak results do not stand in their true shares. The list includes weakly bound sequences.
Columns and labels:
Assay in all cases: protein-binding microarray (PBM)
Settings in all cases: PBM: ~300 nM protein, 6 mM HEPES pH 7.8, 80 mM KCl, 0.5 mM EDTA, 0.5 mM EGTA, 6% glycerol, 35 ng/ul poly-dIdC, 1% milk, 1 h, room temperature; Ap Aiptasia and Nv Nematostella (sea anemones) / Co Capsaspora / Aq Amphimedon (sponge) / Dm Drosophila / Hu human; RHD is the Rel homology domain; high values mean tight binding; most listed sequences are background and not binding sites; double strand, one strand shown
[1] = target: T1, GST-Ap-NF-kB RHD (UniProt A0A913YAJ5)
T1 sequence: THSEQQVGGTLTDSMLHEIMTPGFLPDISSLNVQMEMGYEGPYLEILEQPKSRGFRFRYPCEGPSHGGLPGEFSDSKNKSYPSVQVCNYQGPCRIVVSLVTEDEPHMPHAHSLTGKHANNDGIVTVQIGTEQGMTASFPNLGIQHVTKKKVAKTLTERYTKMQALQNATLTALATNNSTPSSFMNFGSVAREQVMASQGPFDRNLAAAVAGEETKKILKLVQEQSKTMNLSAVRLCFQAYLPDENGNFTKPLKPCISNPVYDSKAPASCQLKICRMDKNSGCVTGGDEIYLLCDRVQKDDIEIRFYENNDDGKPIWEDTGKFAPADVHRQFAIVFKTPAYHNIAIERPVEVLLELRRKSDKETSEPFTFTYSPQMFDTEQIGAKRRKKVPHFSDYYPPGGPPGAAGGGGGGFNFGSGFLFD

[2] = target: T2, GST-Nv-NF-kB (Cys allele) (UniProt E5G601)
T2 sequence: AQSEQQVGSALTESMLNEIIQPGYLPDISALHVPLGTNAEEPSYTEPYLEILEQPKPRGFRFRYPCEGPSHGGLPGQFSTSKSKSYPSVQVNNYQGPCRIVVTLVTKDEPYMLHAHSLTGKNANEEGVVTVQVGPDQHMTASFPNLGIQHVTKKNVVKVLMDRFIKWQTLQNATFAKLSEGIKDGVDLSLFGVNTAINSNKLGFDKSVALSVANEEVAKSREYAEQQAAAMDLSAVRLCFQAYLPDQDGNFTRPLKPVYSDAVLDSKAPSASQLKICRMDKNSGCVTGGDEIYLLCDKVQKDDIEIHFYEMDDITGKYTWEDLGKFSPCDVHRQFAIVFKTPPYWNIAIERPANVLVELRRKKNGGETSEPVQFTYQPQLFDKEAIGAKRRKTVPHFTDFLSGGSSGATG

[3] = target: T3, GST-Co-NF-kB (UniProt F1ARL5)
T3 sequence: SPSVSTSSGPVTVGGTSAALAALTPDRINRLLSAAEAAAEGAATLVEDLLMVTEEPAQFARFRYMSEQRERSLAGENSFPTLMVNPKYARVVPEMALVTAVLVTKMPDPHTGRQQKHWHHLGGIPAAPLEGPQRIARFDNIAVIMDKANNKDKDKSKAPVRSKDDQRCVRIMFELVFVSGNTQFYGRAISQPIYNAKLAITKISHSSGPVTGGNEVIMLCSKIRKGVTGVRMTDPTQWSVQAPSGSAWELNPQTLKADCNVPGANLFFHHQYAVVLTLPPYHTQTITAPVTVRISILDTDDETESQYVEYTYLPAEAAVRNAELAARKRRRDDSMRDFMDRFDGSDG

[4] = target: T4, GST-Dm-Relish (UniProt Q94527)
T4 sequence: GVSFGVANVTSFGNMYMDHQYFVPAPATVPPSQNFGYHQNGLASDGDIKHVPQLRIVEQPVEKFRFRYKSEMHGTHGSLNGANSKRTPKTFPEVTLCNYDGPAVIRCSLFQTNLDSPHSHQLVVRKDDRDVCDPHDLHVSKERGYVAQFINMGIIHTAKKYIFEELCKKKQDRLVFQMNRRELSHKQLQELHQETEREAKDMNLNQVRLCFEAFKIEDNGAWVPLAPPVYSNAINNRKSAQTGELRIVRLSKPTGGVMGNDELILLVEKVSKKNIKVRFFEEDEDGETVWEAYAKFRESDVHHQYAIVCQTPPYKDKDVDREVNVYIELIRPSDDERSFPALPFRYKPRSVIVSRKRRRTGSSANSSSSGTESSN

[5] = target: T5, GST-Aq-NF-kB (UniProt A9Y5G7)
T5 sequence: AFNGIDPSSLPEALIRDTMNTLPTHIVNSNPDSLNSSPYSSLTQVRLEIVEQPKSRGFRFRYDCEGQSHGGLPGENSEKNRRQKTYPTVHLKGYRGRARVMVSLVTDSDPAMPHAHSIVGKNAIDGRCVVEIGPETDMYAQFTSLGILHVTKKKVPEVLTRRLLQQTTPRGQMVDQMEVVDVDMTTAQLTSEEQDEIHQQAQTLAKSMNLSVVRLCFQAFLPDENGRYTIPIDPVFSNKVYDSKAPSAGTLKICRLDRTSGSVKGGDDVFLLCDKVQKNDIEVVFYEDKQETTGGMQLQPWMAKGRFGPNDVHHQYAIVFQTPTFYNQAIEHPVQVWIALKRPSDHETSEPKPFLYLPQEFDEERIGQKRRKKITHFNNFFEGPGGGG

## CCGATTAACATCAGCAATCCTTGTGATGTTAATCGGGTCTTGATTCGCTTGACGCTGCTG
[1]
  binding signal: -0.872 z-score
[2]
  binding signal: -0.499 z-score
[3]
  binding signal: -0.0493 z-score
[4]
  binding signal: -0.202 z-score
[5]
  binding signal: -0.347 z-score

## CCGATTAACATCAGGACTCTTATTGATGTTAATCGGGTCTTGATTCGCTTGACGCTGCTG
[1]
  binding signal: -0.166 z-score
[2]
  binding signal: -0.0158 z-score
[3]
  binding signal: 0.252 z-score
[4]
  binding signal: -0.168 z-score
[5]
  binding signal: 0.283 z-score

## CCGATTAACATCAACCGTGGATATGATGTTAATCGGGTCTTGATTCGCTTGACGCTGCTG
[1]
  binding signal: -0.287 z-score
[2]
  binding signal: -0.41 z-score
[3]
  binding signal: 0.397 z-score
[4]
  binding signal: -0.22 z-score
[5]
  binding signal: -0.291 z-score

## CCGATTAACATCAATCGATTGGGTGATGTTAATCGGGTCTTGATTCGCTTGACGCTGCTG
[1]
  binding signal: 0.299 z-score
[2]
  binding signal: -1.15 z-score
[3]
  binding signal: 0.581 z-score
[4]
  binding signal: -0.225 z-score
[5]
  binding signal: 0.172 z-score

## CCGATTAACATCATCGCGAATGTTGATGTTAATCGGGTCTTGATTCGCTTGACGCTGCTG
[1]
  binding signal: -0.26 z-score
[2]
  binding signal: -0.404 z-score
[3]
  binding signal: -1.17 z-score
[4]
  binding signal: -0.28 z-score
[5]
  binding signal: -0.277 z-score

## CCGATTAACATCATGCGCTTTGATGATGTTAATCGGGTCTTGATTCGCTTGACGCTGCTG
[1]
  binding signal: -0.512 z-score
[2]
  binding signal: 0.122 z-score
[3]
  binding signal: -0.463 z-score
[4]
  binding signal: -0.864 z-score
[5]
  binding signal: -0.57 z-score

## CCGATTAACATCAGGTACTTCCATGATGTTAATCGGGTCTTGATTCGCTTGACGCTGCTG
[1]
  binding signal: 2.51 z-score
[2]
  binding signal: 2.6 z-score
[3]
  binding signal: 0.0969 z-score
[4]
  binding signal: 5.93 z-score
[5]
  binding signal: 2.23 z-score

## CCGATTAACATCAAAGTTTAGTATGATGTTAATCGGGTCTTGATTCGCTTGACGCTGCTG
[1]
  binding signal: -0.824 z-score
[2]
  binding signal: 0.0213 z-score
[3]
  binding signal: -0.312 z-score
[4]
  binding signal: -0.701 z-score
[5]
  binding signal: -0.693 z-score

## CCGATTAACATCATCAAGTTGGGTGATGTTAATCGGGTCTTGATTCGCTTGACGCTGCTG
[1]
  binding signal: 0.282 z-score
[2]
  binding signal: 0.113 z-score
[3]
  binding signal: 0.307 z-score
[4]
  binding signal: -0.0724 z-score
[5]
  binding signal: 0.263 z-score

## CCGATTAACATCAGCGTAGCGAATGATGTTAATCGGGTCTTGATTCGCTTGACGCTGCTG
[1]
  binding signal: -0.355 z-score
[2]
  binding signal: -0.542 z-score
[3]
  binding signal: -1.53 z-score
[4]
  binding signal: -0.716 z-score
[5]
  binding signal: -0.626 z-score

## CCGATTAACATCACAATGTGGCGTGATGTTAATCGGGTCTTGATTCGCTTGACGCTGCTG
[1]
  binding signal: -0.205 z-score
[2]
  binding signal: -0.11 z-score
[3]
  binding signal: 0.369 z-score
[4]
  binding signal: 0.585 z-score
[5]
  binding signal: -0.129 z-score

## CCGATTAACATCACGGAAATGCCTGATGTTAATCGGGTCTTGATTCGCTTGACGCTGCTG
[1]
  binding signal: 0.336 z-score
[2]
  binding signal: 0.0236 z-score
[3]
  binding signal: 0.425 z-score
[4]
  binding signal: -0.1 z-score
[5]
  binding signal: 1.48 z-score

## CCGATTAACATCATCCTAACTGCTGATGTTAATCGGGTCTTGATTCGCTTGACGCTGCTG
[1]
  binding signal: -0.404 z-score
[2]
  binding signal: -0.136 z-score
[3]
  binding signal: -0.211 z-score
[4]
  binding signal: -0.567 z-score
[5]
  binding signal: -0.378 z-score

## CCGATTAACATCAAGCCTCAATATGATGTTAATCGGGTCTTGATTCGCTTGACGCTGCTG
[1]
  binding signal: -0.574 z-score
[2]
  binding signal: 0.47 z-score
[3]
  binding signal: -0.511 z-score
[4]
  binding signal: -0.553 z-score
[5]
  binding signal: -0.482 z-score

## CCGATTAACATCACGAATCAAACTGATGTTAATCGGGTCTTGATTCGCTTGACGCTGCTG
[1]
  binding signal: 0.00823 z-score
[2]
  binding signal: 0.697 z-score
[3]
  binding signal: 0.21 z-score
[4]
  binding signal: -0.0274 z-score
[5]
  binding signal: -0.398 z-score

## CCGATTAACATCAACTCAAGCCCTGATGTTAATCGGGTCTTGATTCGCTTGACGCTGCTG
[1]
  binding signal: -0.063 z-score
[2]
  binding signal: -0.991 z-score
[3]
  binding signal: -0.549 z-score
[4]
  binding signal: -0.7 z-score
[5]
  binding signal: -0.264 z-score

## CCGATTAACATCAAACGCCCATCTGATGTTAATCGGGTCTTGATTCGCTTGACGCTGCTG
[1]
  binding signal: -0.279 z-score
[2]
  binding signal: -0.165 z-score
[3]
  binding signal: -0.298 z-score
[4]
  binding signal: -0.546 z-score
[5]
  binding signal: -0.29 z-score

## CCGATTAACATCAAGAACTAATTTGATGTTAATCGGGTCTTGATTCGCTTGACGCTGCTG
[1]
  binding signal: -0.724 z-score
[2]
  binding signal: 0.397 z-score
[3]
  binding signal: -0.441 z-score
[4]
  binding signal: 0.19 z-score
[5]
  binding signal: -0.361 z-score

## CCGATTAACATCAACGAGCAACATGATGTTAATCGGGTCTTGATTCGCTTGACGCTGCTG
[1]
  binding signal: -0.241 z-score
[2]
  binding signal: -0.101 z-score
[3]
  binding signal: 0.341 z-score
[4]
  binding signal: -0.698 z-score
[5]
  binding signal: -0.325 z-score

## CCGATTAACATCAAGTGAAAGCATGATGTTAATCGGGTCTTGATTCGCTTGACGCTGCTG
[1]
  binding signal: -0.268 z-score
[2]
  binding signal: 0.026 z-score
[3]
  binding signal: -0.473 z-score
[4]
  binding signal: -0.407 z-score
[5]
  binding signal: -0.217 z-score

## CCGATTAACATCAGCCTATACCCTGATGTTAATCGGGTCTTGATTCGCTTGACGCTGCTG
[1]
  binding signal: 0.292 z-score
[2]
  binding signal: -0.0737 z-score
[3]
  binding signal: 0.572 z-score
[4]
  binding signal: -0.667 z-score
[5]
  binding signal: 0.498 z-score

## CCGATTAACATCAAGTGCTGAAGTGATGTTAATCGGGTCTTGATTCGCTTGACGCTGCTG
[1]
  binding signal: 0.257 z-score
[2]
  binding signal: -0.454 z-score
[3]
  binding signal: 0.247 z-score
[4]
  binding signal: -0.417 z-score
[5]
  binding signal: -0.518 z-score

## CCGATTAACATCAAGCTCTAAGGTGATGTTAATCGGGTCTTGATTCGCTTGACGCTGCTG
[1]
  binding signal: 0.38 z-score
[2]
  binding signal: 0.305 z-score
[3]
  binding signal: 0.358 z-score
[4]
  binding signal: 0.313 z-score
[5]
  binding signal: 0.437 z-score

## CCGATTAACATCAACAAAAAGCGTGATGTTAATCGGGTCTTGATTCGCTTGACGCTGCTG
[1]
  binding signal: -0.235 z-score
[2]
  binding signal: -0.422 z-score
[3]
  binding signal: 0.912 z-score
[4]
  binding signal: -0.169 z-score
[5]
  binding signal: -0.282 z-score

## CCGATTAACATCAAGGCAGTCGATGATGTTAATCGGGTCTTGATTCGCTTGACGCTGCTG
[1]
  binding signal: -0.167 z-score
[2]
  binding signal: -0.759 z-score
[3]
  binding signal: -0.235 z-score
[4]
  binding signal: -1.07 z-score
[5]
  binding signal: -0.454 z-score

## CCGATTAACATCATGCTTAATGATGATGTTAATCGGGTCTTGATTCGCTTGACGCTGCTG
[1]
  binding signal: -0.673 z-score
[2]
  binding signal: -0.973 z-score
[3]
  binding signal: -1.03 z-score
[4]
  binding signal: -0.826 z-score
[5]
  binding signal: -0.596 z-score

## CCGATTAACATCATGGTGGTACCTGATGTTAATCGGGTCTTGATTCGCTTGACGCTGCTG
[1]
  binding signal: 0.666 z-score
[2]
  binding signal: 0.581 z-score
[3]
  binding signal: -0.313 z-score
[4]
  binding signal: 0.0972 z-score
[5]
  binding signal: -0.0425 z-score

## CCGATTAACATCAGGAAAGCCCCTGATGTTAATCGGGTCTTGATTCGCTTGACGCTGCTG
[1]
  binding signal: 7.03 z-score
[2]
  binding signal: 9.89 z-score
[3]
  binding signal: 1.05 z-score
[4]
  binding signal: 8.43 z-score
[5]
  binding signal: 9.59 z-score

Reference: PMC5700166
